Data published in PubChem BioAssay AID504832 (National Center for Advancing Translational Sciences (NCATS), 2011).
The whole screen tested about 310,000 compounds, of which about 18,000 (5.8%) were called active. Inconclusive means that the source gave no clear call. Such entries were picked first, then a sample of the others. Calls follow the shape of the dose curve; as a rule, active = well fitted inhibition curve with a large enough effect; inconclusive = small, poorly fitted or top-dose-only effect, or another doubt; inactive = no such curve, though single readings can be large or run the other way. Potencies of inconclusive entries are left out as doubtful fits.

experiment: Primary qHTS for delayed death inhibitors of the malarial parasite plastid, 48 hour incubation; conditions: P. falciparum luciferase growth in erythrocytes; series mostly up to 28.7 µM; activity change, negative = inhibition: at the top concentration
Procedure, shortened: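 Growth was read as firefly luciferase luminescence after a 48 h, 37 C, 5% CO2 exposure of compounds to reporter-bearing P. falciparum cultures (0.1% parasitemia, 2% hematocrit final) in Albumax-supplemented RPMI 1640.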
% is scaled to controls: 0 for no effect and ±100 for the full control effect; potency is read from the fitted curve at half-maximal effect; tags tell the direction and shape of the fitted curve.

Compound | Potency | activity change, negative = inhibition
CCn1nc(C)c(NC(=O)c2cnn3c(C(F)F)cc(-c4ccccc4)nc23)c1C | inconclusive [inhibitor, partial curve, poor fit] | –
COc1ccc(C(=O)Nc2cc(Cl)ccc2-n2cncn2)c(OC)c1OC | inconclusive [inhibitor, single point] | –
CC1=C/C(=C\c2ccc3c(c2)OCO3)C(=O)S1 | inconclusive [inhibitor, full curve, poor fit] | –
O=C(Cc1sc(-c2ccccc2)nc1-c1ccccc1)Nc1ccccc1 | inconclusive [inhibitor, single point] | –
Cc1ccc(-c2cc(C(F)F)n3ncc(C(=O)NN4CCCCC4)c3n2)cc1 | inconclusive [inhibitor, partial curve] | –
COC(=O)C1=C(c2ccccc2OCc2ccccc2)C[C@@H]2CC[C@H]1N2C(=O)NCc1ccc([N+](=O)[O-])cc1 | active: 11.7 µM | –
C#CCOCCOCCOCCNc1nc(N2CCOCC2)nc(N2CCN(C(=O)CCCCCCCCCCNC(=O)Cn3cc(CCCCCN)nn3)CC2)n1 | active: 3.7 µM | –
Cc1ccc(N2C(=O)C3C4C=CC(CNC(=S)Nc5ccc(Cl)cc5)(O4)C3C2=O)cc1 (configuration not stated) | – | inactive: -13.4%
CCOC(=O)C1(Cc2cccc(OC)c2)CCN(Cc2ccccc2)CC1 | inconclusive [inhibitor, full curve, poor fit] | –
Cc1ccc(S(=O)(=O)N2CCCCCC2)cc1C(=O)Nc1cccnc1 | inconclusive [inhibitor, single point] | –
CSc1nsc(/C=C/Nc2ccc(Cl)cc2)c1C#N | active: 1.17 µM | –
CCCCc1ccc(NC(=O)CC(C)C)cc1 | inconclusive [inhibitor, single point] | –
Cc1ccc(C(=O)Nc2ncccc2S(=O)(=O)c2ccccc2)cc1 | – | inactive: 61.5%
CCOc1ccc(N2CC(C(=O)Nc3cccc(S(=O)(=O)NC4=NCCC4)c3)CC2=O)cc1 (configuration not stated) | inconclusive [inhibitor, single point] | –
CCCCCCOC(=O)C[N+](C)(C)CCOC1CC2CCC1(C)C2(C)C (configuration not stated) | active: 1.65 µM | –
O=C(O)Cn1c(-c2ccccc2)cc2ccccc21 | inconclusive [inhibitor, full curve, poor fit] | –
COc1ccc(CN(C(=O)c2snc(C(N)=O)c2N)C(CC(C)C)C(=O)NC2CCCCC2)cc1 (configuration not stated) | active: 11.7 µM | –
COc1ccc(-c2cc(C)no2)cc1S(=O)(=O)Nc1cccc(C)c1 | inconclusive [inhibitor, single point] | –
O=C(Nc1ccncc1)c1cc2ccccc2cc1O | inconclusive [inhibitor, partial curve, poor fit] | –
CCc1cc(=O)oc2cc(C)cc(OCC(=O)NC(Cc3c[nH]c4ccc(O)cc34)C(=O)O)c12 (configuration not stated) | – | inactive: -9.22%
C/C(=N\OCc1cccc(C(=O)O)c1)c1ccc(Cl)cc1 | active: 1.04 µM | –

Compound | Potency | activity change, negative = inhibition
CC(=O)c1cccc(CN2CCC(n3nccc3NC(=O)CCCc3ccccc3)CC2)c1 | inconclusive [inhibitor, partial curve] | –
COc1cccc(NC(=O)COC(=O)c2c3c(nc4ccccc24)CCC(C)C3)c1 (configuration not stated) | inconclusive [inhibitor, full curve] | –
CCCCn1c(NCc2cccs2)nc2ccccc21 | inconclusive [inhibitor, single point] | –
CC(=O)c1cccc(NC(=O)CN2C(=O)NC(C)(c3ccc4c(c3)OCCCO4)C2=O)c1 (configuration not stated) | inconclusive [inhibitor, single point] | –
CCOc1ccc2cc(C3CC(c4ccco4)=NN3S(=O)(=O)c3ccccc3)c(Cl)nc2c1 (configuration not stated) | active: 14.7 µM | –
CCOC(=O)c1ccc(N2CCN(C(=O)c3ccccc3)CC2)c(NC(=O)c2ccco2)c1 | inconclusive [inhibitor, single point] | –
Clc1ccc(-n2nnnc2-c2ccno2)cc1 | inconclusive [inhibitor, single point] | –
O=C(COC(=O)CCCOc1ccccc1)NNC(=O)c1ccc([N+](=O)[O-])cc1 | – | inactive: 15.7%
Cc1cc(C(=O)OC(C(=O)Nc2ccc(C)c(Cl)c2)c2ccccc2)c(C)o1 (configuration not stated) | active: 10.4 µM | –
Cc1cc(C(=O)NNC(=O)c2ccc(Cl)cc2)no1 | – | inactive: 24.4%
Cc1ccccc1OCC(=O)Nc1sc2c(c1C#N)CC(C)(C)NC2(C)C | inconclusive [inhibitor, single point] | –
Clc1ccc(-c2cnc3n2CCC3)cc1 | inconclusive [inhibitor, full curve, poor fit] | –
COc1ccc(N2C(=O)CC(NNC(=O)c3cccnc3)C2=O)cc1 (configuration not stated) | inconclusive [inhibitor, single point] | –
Cc1cn(CC(=O)c2ccccc2)c2ccccc12 | inconclusive [inhibitor, partial curve, poor fit] | –
OC(CNC1CCCCC1)c1ccccc1 (configuration not stated) | inconclusive [inhibitor, partial curve] | –
CCOC(=O)/C(=N/Nc1ccccc1OC)N1CCCc2ccccc21 | inconclusive [inhibitor, partial curve] | –
Cc1onc(-c2c(F)cccc2Cl)c1C(=O)OCC(=O)NC(=O)NCC(C)C | inconclusive [inhibitor, single point] | –
CN(C(=O)c1ccccc1)C1c2c(ccc3ccccc23)OCC1CO (configuration not stated) | inconclusive [inhibitor, partial curve, poor fit] | –
COc1ccc(N2CCCn3c2nc2c3c(=O)n(Cc3ccccc3)c(=O)n2C)c(OC)c1 | inconclusive [inhibitor, full curve] | –
CCS(=O)(=O)N1Cc2ccccc2CC1C(=O)Nc1cc(S(C)(=O)=O)ccc1Cl (configuration not stated) | – | inactive: -8.06%
O=C(COc1ccc(Cl)cc1Cl)Nc1ccc(S(=O)(=O)NC2=NCCCCC2)cc1 | inconclusive [inhibitor, partial curve, poor fit] | –
